According to patent US20150191545A1 (MERRIMACK PHARMACEUTICALS, published 2015):

Experiments:
[1] = target: T1, recombinant extracellular domain of EGFR (UniProt P00533 fragment, limits assumed); test: competition ELISA, ErbB3-coated plate, B2B3-1 at a half-maximal binding concentration, soluble competitor titrated
T1 construct: extracellular domain

[2] = target: T2, recombinant extracellular domain of ErbB4 (UniProt Q15303 26-651, limits assumed); test: as above
T2 construct: extracellular domain
T2 sequence (looked up): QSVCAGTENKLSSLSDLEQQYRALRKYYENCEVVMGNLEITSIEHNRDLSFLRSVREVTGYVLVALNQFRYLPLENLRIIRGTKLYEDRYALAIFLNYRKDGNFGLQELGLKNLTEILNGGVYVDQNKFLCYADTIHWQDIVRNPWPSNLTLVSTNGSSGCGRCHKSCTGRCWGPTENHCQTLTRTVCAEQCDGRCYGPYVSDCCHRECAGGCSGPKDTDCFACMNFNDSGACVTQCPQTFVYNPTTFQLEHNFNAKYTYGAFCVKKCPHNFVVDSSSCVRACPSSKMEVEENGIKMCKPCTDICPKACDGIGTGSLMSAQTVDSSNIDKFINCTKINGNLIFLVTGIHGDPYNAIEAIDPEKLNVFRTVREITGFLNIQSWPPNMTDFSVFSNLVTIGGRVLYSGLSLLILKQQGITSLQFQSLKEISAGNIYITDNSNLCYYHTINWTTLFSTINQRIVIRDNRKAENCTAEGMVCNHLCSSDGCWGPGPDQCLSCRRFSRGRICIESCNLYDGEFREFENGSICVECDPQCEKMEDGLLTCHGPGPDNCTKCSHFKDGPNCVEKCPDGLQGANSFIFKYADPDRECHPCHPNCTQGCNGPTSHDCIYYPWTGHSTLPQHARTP

B1: B2B3-1 (bispecific antibody)
chain: QVQLQESGGGLVKPGGSLRLSCAASGFTFSSYWMSWVRQAPGKGLEWVANINRDGSASYYVDSVKGRFTISRDDAKNSLYLQMNSLRAEDTAVYYCARDRGVGYFDLWGRGTLVTVSSASTGGGGSGGGGSGGGGSQSALTQPASVSGSPGQSITISCTGTSSDVGGYNFVSWYQQHPGKAPKLMIYDVSDRPSGVSDRFSGSKSGNTASLIISGLQADDEADYYCSSYGSSSTHVIFGGGTKVTVLGAAS[about 600 residues omitted here]AAALQVQLVQSGAEVKKPGESLKISCKGSGYSFTSYWIAWVRQMPGKGLEYMGLIYPGDSDTKYSPSFQGQVTISVDKSVSTAYLQWSSLKPSDSAVYFCARHDVGYCTDRTCAKWPEWLGVWGQGTLVTVSSGGGGSSGGGSGGGGSQSVLTQPPSVSAAPGQKVTISCSGSSSNIGNNYVSWYQQLPGTAPKLLIYDHTNRPAGVPDRFSGSKSGTSASLAISGFRSEDEADYYCASWDYTLSGWVFGGGTKLTVLG
notes: Single-chain bispecific scFv-HSA-scFv fusion expressed in CHO-K1 cells; also called H3-mHSA-B1D2; H3-HSA-B1D2
Question: Does B1 bind [1]?
Answer: Result: no binding (tested: about 4000 ng/ml)

Question: Does B1 bind [2]?
Answer: Result: no binding (tested: about 4000 ng/ml)
